Publication PMC9807637
Results are given in words; binding and its absence hold for the method and conditions named. In cells and extracts the contact can be indirect. Some results given as binding are weak or reduced against the parent protein; the word gives no strength. For some of these results: Where a sequence is shown, tags or fusion partners need not be part of it.

Amino acid sequences for entries named in this document (tags omitted).
UniProt Q8K3K8: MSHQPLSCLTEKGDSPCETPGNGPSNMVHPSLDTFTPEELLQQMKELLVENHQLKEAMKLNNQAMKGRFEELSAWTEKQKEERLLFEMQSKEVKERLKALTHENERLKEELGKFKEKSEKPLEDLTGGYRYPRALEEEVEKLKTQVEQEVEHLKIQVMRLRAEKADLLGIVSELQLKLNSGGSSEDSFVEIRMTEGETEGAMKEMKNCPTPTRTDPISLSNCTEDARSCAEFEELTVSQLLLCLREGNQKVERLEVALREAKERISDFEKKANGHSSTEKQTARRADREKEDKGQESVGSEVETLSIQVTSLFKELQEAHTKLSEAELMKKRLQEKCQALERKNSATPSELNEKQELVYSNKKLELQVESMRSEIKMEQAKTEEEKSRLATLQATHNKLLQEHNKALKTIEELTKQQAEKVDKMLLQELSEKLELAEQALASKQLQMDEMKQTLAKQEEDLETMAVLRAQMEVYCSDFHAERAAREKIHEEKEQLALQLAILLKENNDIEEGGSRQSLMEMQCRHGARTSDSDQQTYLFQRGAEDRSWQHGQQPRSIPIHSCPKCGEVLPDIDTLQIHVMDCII
UniProt P59017: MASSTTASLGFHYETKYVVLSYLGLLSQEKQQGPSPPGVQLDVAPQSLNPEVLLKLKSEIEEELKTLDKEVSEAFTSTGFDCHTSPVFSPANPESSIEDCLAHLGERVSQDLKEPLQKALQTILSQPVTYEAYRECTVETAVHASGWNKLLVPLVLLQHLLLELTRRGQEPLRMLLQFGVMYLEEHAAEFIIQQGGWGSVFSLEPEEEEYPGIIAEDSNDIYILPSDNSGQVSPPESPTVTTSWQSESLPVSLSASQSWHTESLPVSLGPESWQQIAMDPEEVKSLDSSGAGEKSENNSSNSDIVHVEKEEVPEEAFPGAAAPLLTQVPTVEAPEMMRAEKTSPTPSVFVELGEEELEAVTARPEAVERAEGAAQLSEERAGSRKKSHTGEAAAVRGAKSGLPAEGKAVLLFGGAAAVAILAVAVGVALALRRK
UniProt Q9Z2F7: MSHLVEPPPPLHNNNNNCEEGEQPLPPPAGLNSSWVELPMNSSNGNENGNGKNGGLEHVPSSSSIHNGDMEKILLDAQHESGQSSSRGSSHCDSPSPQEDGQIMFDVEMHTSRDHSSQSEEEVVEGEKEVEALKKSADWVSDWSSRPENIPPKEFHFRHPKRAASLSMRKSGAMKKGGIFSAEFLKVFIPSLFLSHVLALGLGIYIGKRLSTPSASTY

T1: GST-PHB1 (UniProt P35232)
T1 sequence: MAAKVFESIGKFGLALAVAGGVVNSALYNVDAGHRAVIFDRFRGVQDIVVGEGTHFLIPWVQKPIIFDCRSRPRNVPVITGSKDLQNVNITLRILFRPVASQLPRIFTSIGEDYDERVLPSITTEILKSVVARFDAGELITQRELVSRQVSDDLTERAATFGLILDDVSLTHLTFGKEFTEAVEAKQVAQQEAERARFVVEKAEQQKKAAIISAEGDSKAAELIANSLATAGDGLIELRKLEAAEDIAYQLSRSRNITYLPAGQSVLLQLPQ

T2: Prohibitin 1 (mouse (endogenous in ileal IECs and Mode-K cells)) (UniProt P67778)
T2 sequence: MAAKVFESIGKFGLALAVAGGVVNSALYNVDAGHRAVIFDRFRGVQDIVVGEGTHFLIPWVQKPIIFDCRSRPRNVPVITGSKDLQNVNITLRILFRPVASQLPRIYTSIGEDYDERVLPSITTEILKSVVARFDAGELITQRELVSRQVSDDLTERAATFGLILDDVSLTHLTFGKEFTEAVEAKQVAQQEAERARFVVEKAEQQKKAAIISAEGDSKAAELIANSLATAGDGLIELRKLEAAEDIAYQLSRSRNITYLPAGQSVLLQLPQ


Columns and labels:
GST-PHB1 = molecular target: T1, GST-PHB1; test: pull-down; GST-PHB1 immobilized on glutathione agarose beads; 500 ug protein from primary mouse IECs (wild-type or Parkin-/-) or Mode-K cells, 4 °C for 2 h; washed 3 times with 2 mM HEPES-HCl, 150 mM NaCl, 1 mM EDTA, 0.5% Tween; western blotting; only the target purified
[1] = molecular target: T2, Prohibitin 1 (mouse (endogenous in ileal IECs and Mode-K cells)); test: co-IP; primary ileum IECs from wild-type or Parkin-/- mice, treated with 500 nM rotenone or vehicle for 2 h; 1 mg pre-cleared total protein, IP with PHB1 antibody or control IgG at 4 °C for 16 h, Protein G Plus-Agarose; immunoblot for Nix or PHB1
[2] = molecular target: T2, Prohibitin 1 (mouse (endogenous in ileal IECs and Mode-K cells)); test: co-IP; Mode-K cells, vehicle, N-acetyl-l-cysteine (NAC) or mitoTEMPO; basal PHB1/Nix interaction (Fig. S13)

Molecule	binding (GST-PHB1)	binding [1]	binding [2]
Optineurin (from UniProt Q8K3K8 1-584)	no binding		
Bcl2L13 (from UniProt P59017 1-434)	no binding		
FundC1 (protein, UniProt Q9DB70 1-155) MASRNPPPQDYESDDESYEVLDLTEYARRHHWWNRVFGHSSGPMVEKYSVATQIVMGGVTGWCAGFLFQKVGKLAATAVGGGFLLLQVASHSGYVQIDWKRVEKDVNKAKRQIKKRANKAAPEINNIIEEATDFIKQNIVISSGFVGGFLLGLAS	no binding		

Other lines, results leading:

binding (GST-PHB1)	binding [1]	binding [2]	Molecule
binds	binds	binds	Nix/Bnip3L (from UniProt Q9Z2F7 1-218)
no binding			NDP52 (protein, UniProt A2A6M5 1-331) MDQCPIPTLLEHGNFSQVLFNNVEKFYAPRGDIMCYYTLTEKFIPRRKDWIGIFKVGWKTTQEYYTFMWAPLPKDQNKDSATQQEIQFKAYYLPKDVERYQFCYVDEDGLVRGTSVPFQFCPDPDEDIMVVINKEKVEEMEQLSEELYQQNQELKDKYADLHEQLQRKQVALEATQRVNKTLEHKVEEKASWEKEKASWEEEKASWEEEKASWEEEKASWEEEKASWEEEKASWEEEKASWEEEKASWEEEKASWEEEKASWEEEKASWEEEKASWEEEKASWEEEKASWEKEKASWEEEKASWEKEKAPWEVEKAPWKEVKAYWWNDLHR
